{"source": "the supplement of paper PMC8728848", "experiment_in_all_cases": "glycan array binding signal (z-score within array); higher = stronger binding", "settings_in_all_cases": "glycan notation: IUPAC condensed, linker removed", "key": {"[1]": {"molecular_target": "Glc(a1-6)Glc(a1-6)Glc", "how_it_was_run": "(§1)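 Glycan array data came from 3228 arrays in the Consortium for Functional Glycomics database, and only arrays with an available protein sequence were kept. Glycan names were put into IUPAC-condensed notation, and columns mapping to the same glycan were averaged. The binding signal is a within-array Z-score, averaged across arrays of one protein sequence run at different concentrations or buffers and across linkers. A negative Z-score can be read as non-binding.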"}, "[2]": {"molecular_target": "Glc(a1-6)Glc(a1-6)Glc(a1-6)Glc", "how_it_was_run": "as §1"}, "[3]": {"molecular_target": "Glc(b1-4)Glc", "how_it_was_run": "as §1"}, "[4]": {"molecular_target": "Glc(b1-6)Glc", "how_it_was_run": "as §1"}, "[5]": {"molecular_target": "GlcA(b1-3)Gal", "how_it_was_run": "as §1"}, "[6]": {"molecular_target": "GlcA(b1-3)GlcNAc", "how_it_was_run": "as §1"}, "[7]": {"molecular_target": "GlcA(b1-6)Gal", "how_it_was_run": "as §1"}, "[8]": {"molecular_target": "GlcA3S(b1-3)Gal(b1-4)GlcNAc(b1-2)Man", "how_it_was_run": "as §1"}, "[9]": {"molecular_target": "GlcA3S(b1-3)Gal(b1-4)GlcNAc(b1-3)Gal(b1-4)Glc", "how_it_was_run": "as §1"}, "[10]": {"molecular_target": "GlcNAc(a1-3)Gal(b1-4)GlcNAc", "how_it_was_run": "as §1"}, "[11]": {"molecular_target": "GlcNAc(a1-4)Gal(b1-3)GlcNAc", "how_it_was_run": "as §1"}, "[12]": {"molecular_target": "GlcNAc(a1-4)Gal(b1-4)GalNAc", "how_it_was_run": "as §1"}, "[13]": {"molecular_target": "GlcNAc(a1-4)Gal(b1-4)GlcNAc", "how_it_was_run": "as §1"}, "[14]": {"molecular_target": "GlcNAc(a1-4)Gal(b1-4)GlcNAc(b1-3)Gal(b1-4)Glc", "how_it_was_run": "as §1"}, "[15]": {"molecular_target": "GlcNAc(a1-4)Gal(b1-4)GlcNAc(b1-3)Gal(b1-4)GlcNAc", "how_it_was_run": "as §1"}, "[16]": {"molecular_target": "GlcNAc(a1-4)Gal(b1-4)GlcNAc(b1-3)Gal(b1-4)GlcNAc(b1-3)Gal(b1-4)GlcNAc", "how_it_was_run": "as §1"}, "[17]": {"molecular_target": "GlcNAc(a1-4)Gal(b1-4)GlcNAc(b1-3)Gal(b1-4)[Fuc(a1-3)]GlcNAc(b1-3)Gal(b1-4)[Fuc(a1-3)]GlcNAc", "how_it_was_run": "as §1"}, "[18]": {"molecular_target": "GlcNAc(a1-6)Gal(b1-4)GlcNAc", "how_it_was_run": "as §1"}, "[19]": {"molecular_target": "GlcNAc(b1-2)Gal(b1-3)GalNAc", "how_it_was_run": "as §1"}, "[20]": {"molecular_target": "GlcNAc(b1-2)Man(a1-3)[GlcNAc(b1-2)Man(a1-6)]Man(b1-4)GlcNAc(b1-4)GlcNAc", "how_it_was_run": "as §1"}, "[21]": {"molecular_target": "GlcNAc(b1-2)Man(a1-3)[GlcNAc(b1-2)Man(a1-6)]Man(b1-4)GlcNAc(b1-4)[Fuc(a1-6)]GlcNAc", "how_it_was_run": "as §1"}, "[22]": {"molecular_target": "GlcNAc(b1-2)Man(a1-3)[GlcNAc(b1-4)][GlcNAc(b1-2)Man(a1-6)]Man(b1-4)GlcNAc(b1-4)GlcNAc", "how_it_was_run": "as §1"}, "[23]": {"molecular_target": "GlcNAc(b1-2)Man(a1-3)[GlcNAc(b1-4)][GlcNAc(b1-2)Man(a1-6)]Man(b1-4)GlcNAc(b1-4)[Fuc(a1-6)]GlcNAc", "how_it_was_run": "as §1"}, "[24]": {"molecular_target": "GlcNAc(b1-2)[GlcNAc(b1-4)]Man(a1-3)[GlcNAc(b1-2)Man(a1-6)]Man(b1-4)GlcNAc(b1-4)GlcNAc", "how_it_was_run": "as §1"}, "[25]": {"molecular_target": "GlcNAc(b1-2)[GlcNAc(b1-4)]Man(a1-3)[GlcNAc(b1-4)][GlcNAc(b1-2)Man(a1-6)]Man(b1-4)GlcNAc(b1-4)GlcNAc", "how_it_was_run": "as §1"}, "[26]": {"molecular_target": "GlcNAc(b1-2)[GlcNAc(b1-4)]Man(a1-3)[GlcNAc(b1-4)][GlcNAc(b1-2)[GlcNAc(b1-6)]Man(a1-6)]Man(b1-4)GlcNAc(b1-4)GlcNAc", "how_it_was_run": "as §1"}, "[27]": {"molecular_target": "GlcNAc(b1-2)[GlcNAc(b1-4)]Man(a1-3)[GlcNAc(b1-4)][GlcNAc(b1-2)[GlcNAc(b1-6)]Man(a1-6)]Man(b1-4)GlcNAc(b1-4)[Fuc(a1-6)]GlcNAc", "how_it_was_run": "as §1"}, "[28]": {"molecular_target": "GlcNAc(b1-2)[GlcNAc(b1-6)]Man(a1-6)[GlcNAc(b1-2)Man(a1-3)]Man(b1-4)GlcNAc(b1-4)GlcNAc", "how_it_was_run": "as §1"}, "[29]": {"molecular_target": "GlcNAc(b1-2)[GlcNAc(b1-6)]Man(a1-6)[GlcNAc(b1-2)Man(a1-3)]Man(b1-4)GlcNAc(b1-4)[Fuc(a1-6)]GlcNAc", "how_it_was_run": "as §1"}, "[30]": {"molecular_target": "GlcNAc(b1-2)[GlcNAc(b1-6)]Man(a1-6)[GlcNAc(b1-4)][GlcNAc(b1-2)Man(a1-3)]Man(b1-4)GlcNAc(b1-4)GlcNAc", "how_it_was_run": "as §1"}, "[31]": {"molecular_target": "GlcNAc(b1-3)Fuc", "how_it_was_run": "as §1"}, "[32]": {"molecular_target": "GlcNAc(b1-3)Gal", "how_it_was_run": "as §1"}, "[33]": {"molecular_target": "GlcNAc(b1-3)Gal(b1-3)GalNAc", "how_it_was_run": "as §1"}, "[34]": {"molecular_target": "GlcNAc(b1-3)Gal(b1-4)Glc", "how_it_was_run": "as §1"}, "[35]": {"molecular_target": "GlcNAc(b1-3)Gal(b1-4)GlcNAc", "how_it_was_run": "as §1"}, "[36]": {"molecular_target": "GlcNAc(b1-3)Gal(b1-4)GlcNAc(b1-2)Man(a1-3)[GlcNAc(b1-3)Gal(b1-4)GlcNAc(b1-2)Man(a1-6)]Man(b1-4)GlcNAc(b1-4)GlcNAc", "how_it_was_run": "as §1"}, "[37]": {"molecular_target": "GlcNAc(b1-3)Gal(b1-4)GlcNAc(b1-2)Man(a1-3)[GlcNAc(b1-3)Gal(b1-4)GlcNAc(b1-2)Man(a1-6)]Man(b1-4)GlcNAc(b1-4)[Fuc(a1-6)]GlcNAc", "how_it_was_run": "as §1"}}, "note": "The list shows a part of the results.", "data": [{"binder": "UDA (Urtica dioica), P11218 (protein) MMMRFLSAVVIMSSAMAVGLVSAQRCGSQGGGGTCPALWCCSIWGWCGDSEPYCGRTCENKCWSGERSDHRCGAAVGNPPCGQDRCCSVHGWCGGGNDYCSGSKCQYRCSSSVRGPRVALSGNSTANSIGNVVVTEPLFDQMFSHRKDCPSQGFYSYHSFLVAAESFPAFGTIGDVATRKREVAAFLAHISQATSGERSDVENPHAWGLCHINTTTVTENDFCTSSDWPCAAGKKYSPRGPIQLTHNFNYGLAGQAIGEDLIQNPDLVEKDPIISFKTALWFWMSQHDNKPSCHDIVLNANSAANRIPNKGVIGNIISRAFGHDDFAVRSSSIGFYKRYCDMLGVSYGHDLKYWFDNTPSSEFQRIQMRVAA", "values": [{"measurement": "glycan array binding signal (z-score)", "setting": "[1]", "value": -0.168}, {"measurement": "glycan array binding signal (z-score)", "setting": "[2]", "value": -0.173}, {"measurement": "glycan array binding signal (z-score)", "setting": "[3]", "value": -0.182}, {"measurement": "glycan array binding signal (z-score)", "setting": "[4]", "value": -0.186}, {"measurement": "glycan array binding signal (z-score)", "setting": "[5]", "value": -0.173}, {"measurement": "glycan array binding signal (z-score)", "setting": "[6]", "value": -0.171}, {"measurement": "glycan array binding signal (z-score)", "setting": "[7]", "value": -0.167}, {"measurement": "glycan array binding signal (z-score)", "setting": "[8]", "value": -0.183}, {"measurement": "glycan array binding signal (z-score)", "setting": "[9]", "value": -0.179}, {"measurement": "glycan array binding signal (z-score)", "setting": "[10]", "value": 0.03}, {"measurement": "glycan array binding signal (z-score)", "setting": "[11]", "value": -0.173}, {"measurement": "glycan array binding signal (z-score)", "setting": "[12]", "value": -0.171}, {"measurement": "glycan array binding signal (z-score)", "setting": "[13]", "value": 0.188}, {"measurement": "glycan array binding signal (z-score)", "setting": "[14]", "value": -0.172}, {"measurement": "glycan array binding signal (z-score)", "setting": "[15]", "value": 0.098}, {"measurement": "glycan array binding signal (z-score)", "setting": "[16]", "value": 1.36}, {"measurement": "glycan array binding signal (z-score)", "setting": "[17]", "value": -0.167}, {"measurement": "glycan array binding signal (z-score)", "setting": "[18]", "value": -0.176}, {"measurement": "glycan array binding signal (z-score)", "setting": "[19]", "value": -0.192}, {"measurement": "glycan array binding signal (z-score)", "setting": "[20]", "value": -0.156}, {"measurement": "glycan array binding signal (z-score)", "setting": "[21]", "value": -0.168}, {"measurement": "glycan array binding signal (z-score)", "setting": "[22]", "value": -0.162}, {"measurement": "glycan array binding signal (z-score)", "setting": "[23]", "value": -0.168}, {"measurement": "glycan array binding signal (z-score)", "setting": "[24]", "value": 0.083}, {"measurement": "glycan array binding signal (z-score)", "setting": "[25]", "value": -0.172}, {"measurement": "glycan array binding signal (z-score)", "setting": "[26]", "value": -0.175}, {"measurement": "glycan array binding signal (z-score)", "setting": "[27]", "value": -0.184}, {"measurement": "glycan array binding signal (z-score)", "setting": "[28]", "value": -0.165}, {"measurement": "glycan array binding signal (z-score)", "setting": "[29]", "value": -0.162}, {"measurement": "glycan array binding signal (z-score)", "setting": "[30]", "value": -0.179}, {"measurement": "glycan array binding signal (z-score)", "setting": "[31]", "value": -0.176}, {"measurement": "glycan array binding signal (z-score)", "setting": "[32]", "value": -0.183}, {"measurement": "glycan array binding signal (z-score)", "setting": "[33]", "value": -0.181}, {"measurement": "glycan array binding signal (z-score)", "setting": "[34]", "value": -0.191}, {"measurement": "glycan array binding signal (z-score)", "setting": "[35]", "value": -0.111}, {"measurement": "glycan array binding signal (z-score)", "setting": "[36]", "value": -0.178}, {"measurement": "glycan array binding signal (z-score)", "setting": "[37]", "value": -0.134}]}]}
